# Measured values: article PMC4336329 (PLoS ONE, 2015)
# Out of some 310,000 compounds screened, about 14,000 (4.5%) showed an effect of 50% or more. The effect is printed as a negative number. Some of the results follow.
# Target: human ether-à-go-go-related gene (hERG) potassium channel (human, UniProt Q12809)
# Experiment: primary screen, population patch clamp on CHO cells stably expressing hERG
# 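Note: peak tail current of the secondary pulse compared with the same well before compound.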
# human ether-à-go-go-related gene (hERG) potassium channel, sequence (Q12809 whole entry, looked up): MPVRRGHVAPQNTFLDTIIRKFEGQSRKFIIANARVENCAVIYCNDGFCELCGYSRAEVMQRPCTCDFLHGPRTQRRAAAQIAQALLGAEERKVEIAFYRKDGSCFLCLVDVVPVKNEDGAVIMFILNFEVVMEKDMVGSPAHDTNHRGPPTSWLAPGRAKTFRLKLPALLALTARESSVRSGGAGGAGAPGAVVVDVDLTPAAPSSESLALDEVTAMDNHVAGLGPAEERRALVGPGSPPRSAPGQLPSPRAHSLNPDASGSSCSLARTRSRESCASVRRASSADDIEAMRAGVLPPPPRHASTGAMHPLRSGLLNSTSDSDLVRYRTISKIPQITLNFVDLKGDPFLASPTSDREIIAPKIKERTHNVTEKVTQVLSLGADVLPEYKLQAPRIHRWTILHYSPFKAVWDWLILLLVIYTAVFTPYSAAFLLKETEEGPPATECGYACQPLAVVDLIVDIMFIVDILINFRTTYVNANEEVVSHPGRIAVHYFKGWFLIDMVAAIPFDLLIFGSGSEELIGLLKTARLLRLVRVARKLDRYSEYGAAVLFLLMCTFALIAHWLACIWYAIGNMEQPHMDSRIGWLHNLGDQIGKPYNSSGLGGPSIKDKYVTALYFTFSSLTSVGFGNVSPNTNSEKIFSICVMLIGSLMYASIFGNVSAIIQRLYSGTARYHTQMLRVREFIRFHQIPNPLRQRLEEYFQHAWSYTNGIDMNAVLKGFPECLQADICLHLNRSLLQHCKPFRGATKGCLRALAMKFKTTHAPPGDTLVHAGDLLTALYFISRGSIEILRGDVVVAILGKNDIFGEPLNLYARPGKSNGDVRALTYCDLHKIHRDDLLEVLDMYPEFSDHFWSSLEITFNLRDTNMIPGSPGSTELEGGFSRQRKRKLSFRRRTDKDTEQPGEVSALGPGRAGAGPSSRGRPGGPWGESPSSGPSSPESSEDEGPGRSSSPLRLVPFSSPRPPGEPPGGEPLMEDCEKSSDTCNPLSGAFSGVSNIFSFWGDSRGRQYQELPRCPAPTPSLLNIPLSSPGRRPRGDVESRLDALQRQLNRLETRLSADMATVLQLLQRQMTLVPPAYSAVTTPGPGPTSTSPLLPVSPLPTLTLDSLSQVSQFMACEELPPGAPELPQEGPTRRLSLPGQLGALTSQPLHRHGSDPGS
row,SMILES,"hERG current change (%, negative = inhibition) at 10uM [%]"
1,CCOC(=O)c1ccc(N2C(=O)CC(N3CCC(O)(c4ccc(Cl)cc4)CC3)C2=O)cc1 (centres unmarked),4.12
2,N#Cc1cc2c(nc1SCc1cccnc1)CCCCC2,-14.1
3,Nn1c(SCC(=O)Nc2ccc3c(c2)OCO3)nnc1-c1ccccc1,-6.98
4,Cn1c(NCCCN2CCOCC2)nc2c1c(=O)n(Cc1ccc(Cl)cc1)c(=O)n2C,-21.4
5,CCC(=O)NC(=S)NNC(=O)c1ccc(O)cc1,16.7
6,CC(Sc1nc2ccccc2c(=O)n1CC1CCCO1)C(=O)NC(C)c1ccccc1 (centres unmarked),-5.01
7,Nc1nonc1-n1nnc(C(=O)N/N=C/C=C/c2ccccc2)c1CSC1=NCCS1,-14.1
8,CCn1cnc2c(cnn2-c2ccccc2)c1=O,11.8
9,O=C(Nc1ccncc1)c1cc(-c2cccc(Br)c2)nc2ccccc12,9.58
10,O=C(CS(=O)(=O)c1ccccc1)Nc1nnc(-c2cccs2)o1,8.9
11,O=C(O)COc1ccc(/C=C/c2ccc3cccc([N+](=O)[O-])c3n2)cc1,9.35
12,COc1ccc(C2=NOC(C)(c3nnc(-c4ccc(Cl)cc4)o3)C2)cc1 (centres unmarked),-27.1
13,O=C(NCc1ccccn1)Nc1ccccc1F,13.5
14,CC(CCc1ccccc1)N1CCN(C)CC1 (centres unmarked),-20.4
15,Cc1ccccc1CC1(CO)CCCN(C(=O)Cc2c(F)ccc(F)c2F)C1 (centres unmarked),-0.736
16,CCOC(=O)CNC(=O)CSc1nnc(NC(=O)c2ccccc2Cl)s1,21.4
17,O=S(=O)(N1CCCCCC1)N1CCN(S(=O)(=O)N2CCCCC2)CC1,-2.48
18,CCOC(=O)N1CCN(C(=O)C2CCN(S(=O)(=O)c3ccc(C)cc3)CC2)CC1,-25.8
19,CCCCCCC(=O)Nc1nnc(CC)s1,-2.86

row,SMILES,"hERG current change (%, negative = inhibition) at 10uM [%]"
1,O=C1CCCc2ccccc2N1Cc1ccc(F)cc1,15.4
2,CCC(C)CN1CCC(CO)(Cc2ccccc2Cl)CC1 (centres unmarked),-30
3,CC(C)Nc1nc(NC(C)(C)C)nc(Oc2ccc(=O)n(C)n2)n1,-15.3
4,COc1cc(/C=N/NS(=O)(=O)c2ccc(C)cc2)ccc1OCc1ccc(C(=O)O)cc1,0.853
5,CCOC(=O)C(=O)Nc1ccc(F)cc1,13.3
6,CCCn1c(SCC(=O)Nc2c(CC)cccc2CC)nnc1C(C)C,13.1
7,Cc1cccc(C)c1N(CC(=O)N/N=C/c1cc(Br)c(C)o1)S(C)(=O)=O,-2.24
8,CCOC(=O)C1=C(C)N(C)C(C)=C(C(=O)OCC)C1c1ccccc1,9.76
9,CCC(CC)c1nc(C#N)c(NC(C)c2ccccc2)o1 (centres unmarked),-3.77
10,COc1ccc(NC(=O)CSc2nccn2Cc2ccccc2)c(OC)c1,-6.64
11,CC1CCCC(C)N1S(=O)(=O)c1ccc(S(=O)(=O)NCCc2ccncc2)cc1 (centres unmarked),-7.78
12,Cc1ccn(CC(=O)N2CCCC(N3CCN(Cc4ccc5c(c4)OCO5)CC3)C2)n1 (centres unmarked),-5.29
13,O=C(Nc1ccc(Cl)cc1)Nc1nnc(SCc2ccc(Cl)cc2)s1,6.78
14,O=Cc1ccc(-c2ccc(F)cc2)o1,0.135
15,Cc1cccc(-n2c(C)nc3cc(C(=O)NCC4CCCO4)ccc32)c1 (centres unmarked),-4.72
16,COCC(C)Nc1nc(C)c(C(C)=O)s1 (centres unmarked),13.8
17,Cc1cc(C)n(C(=O)CN2C(=O)CCC2=O)n1,20.5
18,O=C(O)c1ccccc1C(=O)N1CCN(c2ccccc2)CC1,7.06
19,NC(=NC(=O)c1ccccc1)N1CCN(C(c2ccccc2)c2ccccc2)CC1,9.74

row,SMILES,"hERG current change (%, negative = inhibition) at 10uM [%]"
1,Cc1ccc(SCCC(=O)OC(C(=O)NC(N)=O)C(C)C)cc1 (centres unmarked),2.66
2,COc1cc(C(=O)N2CCN(C(=O)C3COc4ccccc4O3)CC2)cc(OC)c1OC (centres unmarked),-27.9
3,CC(=O)Oc1ccc(N(C(C)=O)S(=O)(=O)c2cccs2)cc1,2.49
4,CCOc1ccc2[nH]c(=O)c(CN(Cc3ccc(C)cc3)C(=O)N3CCCC3)cc2c1,0.145
5,CC1=C(C(N)=O)C(c2ccc(C)o2)C(C(N)=O)=C(C)N1,13
6,O=C1c2ccccc2C(=O)N1CCCc1cn(C[C@H]2CC[C@@H]([C@@H]3CC[C@H](Cn4cc(CCCN5C(=O)c6ccccc6C5=O)nn4)O3)O2)nn1,-23.8
7,O=C(Nc1cc(=O)[nH]c2nc(-c3ccccc3)nn12)c1ccccc1Cl,15.3
8,CCOc1cc(C(=O)Nc2ccc(N3CCN(S(C)(=O)=O)CC3)cc2)cc(OCC)c1OCC,3.94
9,COc1cccc(=O)c2c(C)oc(C)c12,3.11
10,COc1cc(CC(NC(C)=O)C(=O)NC2CCN(C(=O)Nc3ccc(C)cc3)CC2)cc(OC)c1 (centres unmarked),-5.62
11,Cc1cccc(N2CCN(C(=O)C3CCN(S(=O)(=O)N4CCOCC4)CC3)CC2)c1C,-44.3
12,COc1cc(C(=O)Nc2ccc(S(=O)(=O)Nc3onc(C)c3C)cc2)cc(OC)c1OC,4.29
13,COc1cccc(NC(=O)CN(C)C(C)C(=O)Nc2cc([N+](=O)[O-])ccc2Cl)c1 (centres unmarked),-19.5
14,COc1ccc(OC)c(NC(=O)CCN2CCC(C)CC2)c1.Cl,8.36
15,CC(C)c1ccc(CNC(=O)CSCC(=O)Nc2ccc3ccccc3c2)cc1,7.23
16,Cc1ccc(C(=O)NC(C)c2ccc(-n3ccnc3)cc2)cc1S(=O)(=O)N1CCOCC1 (centres unmarked),-65.1
17,COC(=O)C(NC(C)=O)(Nc1nc2c(s1)CCCC2)C(F)(F)F (centres unmarked),-4.29
18,O=C(CNC(c1ccccc1)c1ccccc1)Nc1ccccc1F,15.6
